Measurements: the supplement of paper PMC8728848
Some of the results follow.

Columns and labels:
Assay in all cases: glycan array binding signal (z-score within array); higher = stronger binding
Details in all cases: glycan notation: IUPAC condensed, linker removed
[1] = target: Gal(b1-4)GlcNAc(b1-3)[Fuc(a1-3)GlcNAc(b1-6)]Gal(b1-4)Glc
Procedure, shortened: (§1)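 The binding signal is a Z-score computed within each array. Data were drawn from 3228 arrays in the Consortium for Functional Glycomics database, restricted to those with a known protein sequence. Scores were averaged over arrays of the same protein sequence at different concentrations or buffers, and over linkers, and negative values can be taken as non-binding.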

[2] = target: Gal(b1-4)GlcNAc(b1-3)[Gal(b1-4)GlcNAc(b1-6)]Gal(b1-4)GlcNAc
Procedure, shortened: as §1

[3] = target: Gal(b1-4)GlcNAc(b1-3)[GlcNAc(b1-6)]Gal(b1-4)GlcNAc
Procedure, shortened: as §1

[4] = target: Gal(b1-4)GlcNAc(b1-6)Gal(b1-4)GlcNAc
Procedure, shortened: as §1

[5] = target: Gal(b1-4)GlcNAc(b1-6)GalNAc
Procedure, shortened: as §1

[6] = target: Gal(b1-4)GlcNAc(b1-6)[Gal(b1-3)]GalNAc
Procedure, shortened: as §1

[7] = target: Gal(b1-4)GlcNAc(b1-6)[Gal(b1-4)GlcNAc(b1-3)]GalNAc
Procedure, shortened: as §1

Gal(b1-4)GlcNAc6P = target: Gal(b1-4)GlcNAc6P
Procedure, shortened: as §1

Gal(b1-6)Gal = target: Gal(b1-6)Gal
Procedure, shortened: as §1

Gal3S(b1-3)GalNAc = target: Gal3S(b1-3)GalNAc
Procedure, shortened: as §1

Gal3S(b1-3)GlcNAc = target: Gal3S(b1-3)GlcNAc
Procedure, shortened: as §1

[8] = target: Gal3S(b1-3)[Fuc(a1-4)]GlcNAc
Procedure, shortened: as §1

Gal3S(b1-4)Glc = target: Gal3S(b1-4)Glc
Procedure, shortened: as §1

Gal3S(b1-4)Glc6S = target: Gal3S(b1-4)Glc6S
Procedure, shortened: as §1

Gal3S(b1-4)GlcNAc = target: Gal3S(b1-4)GlcNAc
Procedure, shortened: as §1

[9] = target: Gal3S(b1-4)[Fuc(a1-3)]Glc6S
Procedure, shortened: as §1

[10] = target: Gal3S(b1-4)[Fuc(a1-3)]GlcNAc
Procedure, shortened: as §1

[11] = target: Gal3S(b1-4)[Fuc(a1-3)]GlcNAc6S
Procedure, shortened: as §1

Gal3S4S(b1-4)GlcNAc = target: Gal3S4S(b1-4)GlcNAc
Procedure, shortened: as §1

B1: Epa22 (Candida glabrata) (protein)
chain: MGSSHHHHHHSSGLVPRGSHMKRALSSQNPFGYPIGCSPQSTNVIPGLTMELYSYPIVSGTPPNCYDASYVDPEYPRTGYLKRKMIGKSTGVTGSLNYKFSVEKACMVKYGNLPAGYNYNEPLTVSNFTMLLYGYFKPQTSGIHTFFVNADDLLYINFGAGNAFDCCKREDSKFKLGEYVAYDIWHVDSSKNKVSLNLEKDVYYPIRMFFNNIGKDSSLDLSFSVNGAVEHITDFSGYLYSVPDQPDACPAPIGYDTTCK
glycan array binding signal (z-score) [1]: -0.343 | glycan array binding signal (z-score) [2]: -0.186 | glycan array binding signal (z-score) [3]: -0.387 | glycan array binding signal (z-score) [4]: 1.2 | glycan array binding signal (z-score) [5]: 0.329 | glycan array binding signal (z-score) [6]: -0.098 | glycan array binding signal (z-score) [7]: 0.287 | glycan array binding signal (z-score) (Gal(b1-4)GlcNAc6P): -0.305 | glycan array binding signal (z-score) (Gal(b1-6)Gal): 1.8 | glycan array binding signal (z-score) (Gal3S(b1-3)GalNAc): -0.415 | glycan array binding signal (z-score) (Gal3S(b1-3)GlcNAc): -0.4 | glycan array binding signal (z-score) [8]: -0.347 | glycan array binding signal (z-score) (Gal3S(b1-4)Glc): -0.201 | glycan array binding signal (z-score) (Gal3S(b1-4)Glc6S): -0.37 | glycan array binding signal (z-score) (Gal3S(b1-4)GlcNAc): -0.392 | glycan array binding signal (z-score) [9]: -0.379 | glycan array binding signal (z-score) [10]: -0.388 | glycan array binding signal (z-score) [11]: 0.376 | glycan array binding signal (z-score) (Gal3S4S(b1-4)GlcNAc): -0.34
